Article PMC12136788
The list shows a part of the results.

T1: UNK ZnF1-3 (human, UniProt Q9C0B0 31-174)
T1 sequence: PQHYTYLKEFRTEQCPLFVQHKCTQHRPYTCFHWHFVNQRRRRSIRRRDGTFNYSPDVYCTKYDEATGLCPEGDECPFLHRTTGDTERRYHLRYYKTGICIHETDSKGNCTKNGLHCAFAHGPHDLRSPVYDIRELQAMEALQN

B1: chr2:160605069:160605070:+_ENSG00000136536_ENST00000409591|hu_hu|motif|central (ssRNA)
RNA: GGGAGUUCUACAGUCCGACGAUCAGCUCCAAGAGGAUCAUUCUGUGCUUCAAGGUGAACCACUUCAUUUGAUUCUCUUCGGAAAAUAUGAGAUCUAGAUGAUGUAUCAGAGGUAGGUAUCCUUGAAGAUUCAUCUCUUCCCUCCAACAGAGGAUUGAGCAUCA
B2: chr1:120459247:120459248:-_ENSG00000134250_ENST00000256646|hu_hu|motif|central (ssRNA)
RNA: GGGAGUUCUACAGUCCGACGAUCCCGAGCCACAUCCCGGGGAAGACGAUCCAUAUGGUCUGUGAUGUCUCGAUUGGCAAAAUGGUCGGACAGGAUCUUGGCUGCUUCAUAGCUCCCCUCCCGGGCAGCAAGAAACAGAGGUGUCAACAGAGGAUUGAGCAUCA
B3: chr1:93831146:93831147:+_ENSG00000117505_ENST00000370272|hu_hu|motif|central (ssRNA)
RNA: GGGAGUUCUACAGUCCGACGAUCUAACAGAGGUUCAGUUUCACAGCCUUUCCCUCAAGUGUCUUAUCCUAAAAGUAAAACCGGGAUGAUCUAAGGUGGUGGUUUUCAACAGGGUGCAAUUUUGCCUCCUAUACUCGCAACACCCAACAGAGGAUUGAGCAUCA
B4: 46905009_46906093_746_CDS_ENSG00000141627_ENST00000269445|human|control|control (ssRNA)
RNA: GGGAGUUCUACAGUCCGACGAUCCACUUUCAGCAAACAGCAAAUAAUAAACAAAGCAUUGUGUGUCUGCCAAAUGAAGAUGUGGUUCUGACAUUCUGCUGAAAGUUUUAGUUCUUUGGUUCUAGAAAGGAAGACCUUAAUUAGCAACAGAGGAUUGAGCAUCA
B5: chr8:103840089:103840090:-_ENSG00000155096_ENST00000347770|hu_mus|motif|central (ssRNA)
RNA: GGGAGUUCUACAGUCCGACGAUCUCUCCAUAAUAAAUCUGAACUUCACAAUGAUUACCAAACACAUUUACUUAAAUUACGGAUUAAAUAACUAAAAAGUAUAUUGAGGCAAACCAAACUUAAACGGGUUAUAAAGAAACUAACCAACAGAGGAUUGAGCAUCA
B6: 112035641_112041122_537_CDS_ENSG00000010810_ENST00000368667|human|control|control (ssRNA)
RNA: GGGAGUUCUACAGUCCGACGAUCCACUCCUGUUCCUCCUCUCGUACGCAAGGUCCCCGUAUGAGACGAAGAGUUCACACCUCCAAAGACGGUGAGUCCUUGGCCCCCGGCUGCGUGGAAGUUGUUGUAGUUGGGGAUGGAGGUCAACAGAGGAUUGAGCAUCA
B7: 32622542_32625180_775_3pUTR_ENSMUSG00000002996_ENSMUST00000172314|mouse|control|control (ssRNA)
RNA: GGGAGUUCUACAGUCCGACGAUCUUUUGAAGAAGAGGACACUGGUGGUGGGCGUGCAUAGGAAUGUAAACUUUUGCUAGUAGCUAUGAUGUGUACAGGAGAUGAUCUGUUAUAAAAUGAGCACUGCAUCAGGGGACUUUGUGGCAACAGAGGAUUGAGCAUCA
B8: chr1:109605286:109605287:-_ENSG00000197780_ENST00000461096|hu_mus|hu_hu_hu_mus_True|18_78 (ssRNA)
RNA: GGGAGUUCUACAGUCCGACGAUCAAGUUUCAGAGUAACAUUCAGUAACCUCUUUAACAAUUGUAAUCCUUAUUAUAAGCUAAGCAGAAUAAUAAUUUAAUACCGUAAGUGAACUACCACAAAACCUUGAACCGCGAAAAUGGUCAACAGAGGAUUGAGCAUCA
B9: chr1:225611761:225611762:-_ENSG00000143815_ENST00000272163|hu_mus|hu_hu_hu_mus_True|88_108 (ssRNA)
RNA: GGGAGUUCUACAGUCCGACGAUCCCAGGCCAUCGACCUCUGACCACUUCACCAUCGACAAACUUCCUACUUGGCAUUUUCUAAAAUUAGUCUGGCCGCGCUCCGGCGGGAACUCCAGCCACUCCAGGACAGUCACCAGCAGCCCAACAGAGGAUUGAGCAUCA
B10: chr10:33190432:33190433:-_ENSG00000150093_ENST00000302278|hu_mus|hu_hu_hu_mus_True|1_108 (ssRNA)
RNA: GGGAGUUCUACAGUCCGACGAUCUACAUUUUCAAAACCUGCAUGUGAAUAAAACCCUGGCCACAGAGCCCCAAAACUACCCUACUGUGACUAAGAUGCUGCUGCUGUGAGCUUGGUGUUGCAAAAUCCGCCUGAGUCAGUACUCAACAGAGGAUUGAGCAUCA
B11: chr1:43162399:43162400:+_ENSG00000065978_ENST00000321358|hu_mus|FALSE|FALSE (ssRNA)
RNA: GGGAGUUCUACAGUCCGACGAUCAUUCUGGUAAUUUUGCUGGUAAUUGCGUGGAGGACCCCUACGACGUGGAUAGCGUCUAUAAUGGUUACGGUCUGCUGCGUAUUUACUGCCUUGAACUGGAACUCCACCAGGGCCUGUAACCAACAGAGGAUUGAGCAUCA
B12: chr14:35777207:35777208:+_ENSG00000100902_ENST00000261479|hu_mus|FALSE|FALSE (ssRNA)
RNA: GGGAGUUCUACAGUCCGACGAUCUUUGUCGGGUACUUUCUUCUGUGUGACAAUAACUGCACAGUCCUUUCCUCUGACAGCAACAGAUGUAAGUCCACCCUGGUUAAUAGCCUUAAAAGCAUAUUCUACUUGGUAGAGUCGGCCCAACAGAGGAUUGAGCAUCA
B13: chr3:176768308:176768309:-_ENSG00000177565_ENST00000430069|hu_hu|motif|central (ssRNA)
RNA: GGGAGUUCUACAGUCCGACGAUCACUAAGAUUCCAUAUUCUUGCUGUUGAGUCUCCAGACCCUGAUGCUAGGAGAUCACGGACAGGGUUCCAGGCACAGAUAAAAACUUCAGAUUCAUGGCCCCGCAACACAACAGCUUUAUUCAACAGAGGAUUGAGCAUCA
B14: chr11:4749296:4749297:-_ENSMUSG00000009073_ENSMUST00000109910|mus_hu|FALSE|FALSE (ssRNA)
RNA: GGGAGUUCUACAGUCCGACGAUCGCGACCCGGCACUCCGGGAUUCGGGCCGGAGAUGCCGGGGACGCCUCGGGACGGGACCCCUAGACGGCAGCGGCCCAGACUCCGCGCGCCUCUCAGCGGCCGACUAGGGUCACGGGGCCGCAACAGAGGAUUGAGCAUCA

Molecular target: T1, UNK ZnF1-3
Test: nsRBNS (natural sequence RNA bind-n-seq); RBNS binding buffer (assumed for nsRBNS): 25 mM Tris pH 7.5, 150 mM KCl, 3 mM MgCl2, 0.01% Triton X-100, 500 ug/ml BSA, 20 U/ml SUPERase-In, 4 C; UNK is unkempt and MSI1 is Musashi-1; names of the RNAs are library labels; protein concentration not given here; high values mean tight binding

Binder | binding signal
B1 | 0.72 enrichment R
B2 | 1.07 enrichment R
B3 | 0.881 enrichment R
B4 | 0.72 enrichment R
B5 | 1.61 enrichment R
B6 | 0.636 enrichment R
B7 | 1.76 enrichment R
B8 | 0.792 enrichment R
B9 | 1.36 enrichment R
B10 | 1.2 enrichment R
B11 | 0.62 enrichment R
B12 | 0.812 enrichment R
B13 | 1.13 enrichment R
B14 | 0.284 enrichment R
